The supplement of paper PMC7125110
± gives the standard error. Variants at the background level are over-represented here.

B1: glmS ribozyme (parent)
chain: AUAAAAGCGCCAGAACUACAGAAAUGUAGUUGACGAGGAGGAGGUUUAUCGAAUUUUCGGCGGAUGCCUCCAAA

Experiments:
Details in all cases: with glucosamine-6-phosphate
glucosamine-6-phosphate [1] = variants of: B1; assay: self-cleavage kobs at 640 uM GlcN6P; higher = faster cleavage; RNA array
Summary of the method: (§1)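 Tiles of sequenced MiSeq chips were imaged over ~14 h at 37 °C. On them, barcoded ribozyme variants had been transcribed in situ by E. coli RNA polymerase and were tracked via a hybridised Cy3 probe while glucosamine-6-phosphate (40 μM to 10 mM) in HEPES/KCl/Mg(OAc)2 buffer flowed in. Per-tile medians, normalised to baseline and to non-cleaving reference variants, were fit to one- or two-exponential decays for kobs, and weighted Michaelis–Menten fits gave kcat and KM.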

glucosamine-6-phosphate [2] = variants of: B1; assay: self-cleavage kobs at 160 uM GlcN6P; higher = faster cleavage; RNA array
Summary of the method: as §1

glucosamine-6-phosphate [3] = variants of: B1; assay: self-cleavage kobs at 2500 uM GlcN6P; higher = faster cleavage; RNA array
Summary of the method: as §1

glucosamine-6-phosphate [4] = variants of: B1; assay: self-cleavage kobs at 10000 uM GlcN6P; higher = faster cleavage; RNA array
Summary of the method: as §1

Variant | self-cleavage kobs at 640 uM GlcN6P (glucosamine-6-phosphate [1]) [s⁻¹] | self-cleavage kobs at 160 uM GlcN6P (glucosamine-6-phosphate [2]) [s⁻¹] | self-cleavage kobs at 2500 uM GlcN6P (glucosamine-6-phosphate [3]) [s⁻¹] | self-cleavage kobs at 10000 uM GlcN6P (glucosamine-6-phosphate [4]) [s⁻¹]
G29C A48C G62U | < 1e-05 | < 1e-05 | < 1e-05 | 
C16G A53C G59A | < 1e-05 |  | < 1e-05 | 
A15G G35U C50A C71A | < 1e-05 |  |  | 
G29A A33C G38C A53C | < 1e-05 | < 1e-05 | < 1e-05 | 
U30G A53C | 0.000512 ± 0.0001 | 0.000159 ± 6.4e-05 | 0.00138 ± 0.00034 | 0.00177 ± 0.00022
A15G U31C G38C | < 1e-05 |  |  | 
G21U U47G | 0.00247 ± 0.00049 |  |  | 
G32A A42U | < 1e-05 | < 1e-05 |  | 
G32C G38U G62A | < 1e-05 |  |  | 
C16G A33C U57A G63U G66U C67G | < 1e-05 |  |  | 
A33G G35C C61U C67G | < 1e-05 |  |  | 
A15U U45C G66U C67G | 7.69e-05 ± 2.9e-05 |  | 0.000193 ± 5.8e-05 | 
U30G C34A C68A | < 1e-05 |  |  | 
C16A G66A | 0.000223 ± 5e-05 | 6.8e-05 ± 3.1e-05 |  | 
U30C G37A A53C U55G | < 1e-05 | < 1e-05 |  | 
A33U A36G A64G | < 1e-05 | < 1e-05 | < 1e-05 | 
G29C C58A U65G | < 1e-05 |  |  | 
U31A G62C C71U | < 1e-05 | < 1e-05 |  | 
A33U U55C G59U C67A C71A | < 1e-05 |  |  | 
U31G C34G U47C G63U | < 1e-05 |  | < 1e-05 | 
A15G C34A A64C | < 1e-05 |  |  | 
G29A A36G C58A | < 1e-05 | < 1e-05 | < 1e-05 | 
A18C U46A A52C C61U C67U | < 1e-05 |  | < 1e-05 | < 1e-05

Variant | self-cleavage kobs at 640 uM GlcN6P (glucosamine-6-phosphate [1]) [s⁻¹] | self-cleavage kobs at 160 uM GlcN6P (glucosamine-6-phosphate [2]) [s⁻¹] | self-cleavage kobs at 2500 uM GlcN6P (glucosamine-6-phosphate [3]) [s⁻¹] | self-cleavage kobs at 10000 uM GlcN6P (glucosamine-6-phosphate [4]) [s⁻¹]
C34A G63U A64G | < 1e-05 |  | < 1e-05 | 
G32A G38C A48U C61U | < 1e-05 | < 1e-05 | < 1e-05 | < 1e-05
G32U G44U G51U C70U | < 1e-05 | < 1e-05 | < 1e-05 | 
U31C G35C | < 1e-05 | < 1e-05 | < 1e-05 | < 1e-05
G32A G40A U47A G63U | < 1e-05 |  | < 1e-05 | 
U31A A36C U65A | < 1e-05 |  | < 1e-05 | 
G29A A39C C50G | < 1e-05 |  |  | 
A15G C16A G60U | < 1e-05 | < 1e-05 |  | 
G32C A39C A42U A64G U65C | < 1e-05 |  | < 1e-05 | < 1e-05
A33U G37U A53G | < 1e-05 |  |  | 
G29C G43A A52G G66U | < 1e-05 |  |  | 
G29C G44A A64C | < 1e-05 |  | < 1e-05 | 
G32A U65A | 5.66e-05 ± 1.2e-05 |  | 0.000104 ± 1.4e-05 | 0.000243 ± 4.4e-05
U30A U45C G59A | < 1e-05 |  |  | 
U30G G38U U45G A48U U57A | < 1e-05 |  |  | 
C16U G51C | < 1e-05 | < 1e-05 | < 1e-05 | 
G32A G66U | 4.96e-05 ± 1.7e-05 |  | 5.52e-05 ± 1.1e-05 | 0.000118 ± 1.6e-05
G35A C71A | < 1e-05 | < 1e-05 | < 1e-05 | < 1e-05
U31G G41U G51U C71A | < 1e-05 |  | < 1e-05 | 
A15U C34A | < 1e-05 | < 1e-05 | < 1e-05 | < 1e-05
A33U C61U | < 1e-05 |  |  | 
A33C C34A U65C C67U | < 1e-05 |  |  | 
U31A C34U G51U | < 1e-05 |  | < 1e-05 | 

Variant | self-cleavage kobs at 640 uM GlcN6P (glucosamine-6-phosphate [1]) [s⁻¹] | self-cleavage kobs at 160 uM GlcN6P (glucosamine-6-phosphate [2]) [s⁻¹] | self-cleavage kobs at 2500 uM GlcN6P (glucosamine-6-phosphate [3]) [s⁻¹] | self-cleavage kobs at 10000 uM GlcN6P (glucosamine-6-phosphate [4]) [s⁻¹]
G32A G44U A53C | < 1e-05 |  | < 1e-05 | 
G32A G66U C68G | 0.000111 ± 3.9e-05 |  |  | 
C16A G62A U65A | < 1e-05 |  | < 1e-05 | 
G29U U69G | 7.49e-05 ± 1.7e-05 | 5.79e-05 ± 1.4e-05 | 5.06e-05 ± 1.2e-05 | 
A15G U31A G35U C67G | < 1e-05 | < 1e-05 | < 1e-05 | 
A33U A36U | < 1e-05 | < 1e-05 | < 1e-05 | < 1e-05
C16G G51U U56C C70U | < 1e-05 | < 1e-05 |  | 
G29C G43A G63A | < 1e-05 |  | < 1e-05 | 
U30G G41U C58A C67G | < 1e-05 |  |  | 
A33C A39C G43U G51C | < 1e-05 |  |  | 
C16G U30C A36U U45G A52U | < 1e-05 |  |  | 
U31A C58G A64C C68U | 0.00011 ± 3.5e-05 |  | 8.36e-05 ± 2.2e-05 | 
C34A G51A A52G | < 1e-05 |  |  | 
G29C A42G G43U G51C G62C | < 1e-05 |  |  | 
G32A G63C | < 1e-05 | < 1e-05 | < 1e-05 | < 1e-05
U31G G40C C61A | < 1e-05 | < 1e-05 | < 1e-05 | 
C16G A39C | 0.000184 ± 2.9e-05 | 4.38e-05 ± 9.6e-06 | 0.000427 ± 6.6e-05 | 0.000629 ± 7.2e-05
U30G A36G U46A C68U | < 1e-05 |  |  | 
G32A A53C C71U | 7.17e-05 ± 2.3e-05 | 3.67e-05 ± 1.6e-05 | 0.000197 ± 4.7e-05 | 
G29U A39G U56A | 0.001 ± 0.00039 | 8.2e-05 ± 2.8e-05 | 0.00181 ± 0.00055 | 
C16U A53G U54C | 0.00193 ± 0.00028 | 0.000683 ± 0.00013 | 0.00421 ± 0.00075 | 
G29C C67A | 0.000128 ± 1.9e-05 | 5.79e-05 ± 1.3e-05 | 0.000163 ± 3.2e-05 | 0.000363 ± 5.2e-05
A33U C50U G62C | < 1e-05 | < 1e-05 | < 1e-05 | 

Variant | self-cleavage kobs at 640 uM GlcN6P (glucosamine-6-phosphate [1]) [s⁻¹] | self-cleavage kobs at 160 uM GlcN6P (glucosamine-6-phosphate [2]) [s⁻¹] | self-cleavage kobs at 2500 uM GlcN6P (glucosamine-6-phosphate [3]) [s⁻¹] | self-cleavage kobs at 10000 uM GlcN6P (glucosamine-6-phosphate [4]) [s⁻¹]
C16G A33U U46G G51A C68U C71A | < 1e-05 |  |  | 
G29C G37A G51A | < 1e-05 |  |  | 
A33C G44U C67U | < 1e-05 |  | < 1e-05 | < 1e-05
A15G U49A C58A U69A C70U | 0.00014 ± 3.9e-05 |  |  | 
C16A G40C A64C C67U | < 1e-05 |  | < 1e-05 | 
C16U G60U C68A | < 1e-05 |  |  | 
C34G A39C | < 1e-05 |  | < 1e-05 | < 1e-05
U30G A39U U45G | 0.000324 ± 5.9e-05 |  | 0.00055 ± 0.0001 | 0.0014 ± 0.00018
G35A G59A | < 1e-05 |  |  | < 1e-05
C34U U55C C67U | < 1e-05 |  |  | 
U30A C70G C71U | 5.91e-05 ± 2.5e-05 |  | 8.51e-05 ± 2.9e-05 | 
G29U A36C | < 1e-05 |  |  | 
U30C G35C A48U U54C | < 1e-05 |  | < 1e-05 | 
A33U C34A G40C G59C C61U C71G | < 1e-05 |  | < 1e-05 | 
C16U A36C G40U G62A G63A | < 1e-05 |  |  | 
A33G G41C | < 1e-05 |  | < 1e-05 | 
G29U C58A C68A | 0.000121 ± 3.2e-05 |  | 3.43e-05 ± 1.5e-05 | 
C16G G29C A33U A48C | < 1e-05 | < 1e-05 |  | 
A15G G60C G63U | < 1e-05 | < 1e-05 | < 1e-05 | 
A33U U45G U47A G63U | < 1e-05 |  |  | 
G32C G43U U45G | < 1e-05 |  |  | 
A33C G62U A64C | < 1e-05 |  | < 1e-05 | 
C16G A39G G51U U55C G59C | < 1e-05 |  |  | 

Variant | self-cleavage kobs at 640 uM GlcN6P (glucosamine-6-phosphate [1]) [s⁻¹] | self-cleavage kobs at 160 uM GlcN6P (glucosamine-6-phosphate [2]) [s⁻¹] | self-cleavage kobs at 2500 uM GlcN6P (glucosamine-6-phosphate [3]) [s⁻¹] | self-cleavage kobs at 10000 uM GlcN6P (glucosamine-6-phosphate [4]) [s⁻¹]
G32A G35C G41C G51C | < 1e-05 |  | < 1e-05 | 
A15U G40U A48C | < 1e-05 | < 1e-05 |  | 
C16U G38C C70G | < 1e-05 |  | < 1e-05 | 
G29C G35U A36C | < 1e-05 |  | < 1e-05 | 
U30C A33U G60C A64U C70U | < 1e-05 |  |  | 
G32U A42U G62C C68G | < 1e-05 |  |  | 
U31C C34U | < 1e-05 |  | < 1e-05 | < 1e-05
U31C G43U G62U | < 1e-05 |  | < 1e-05 | 
C16G U46A | 9.94e-05 ± 2.2e-05 | 4.2e-05 ± 2e-05 | 0.000146 ± 2.2e-05 | 0.000213 ± 4.4e-05
U31A C34U G35C C58U | < 1e-05 |  |  | 
U30A G32U A42U U45C | < 1e-05 |  | < 1e-05 | 
G29A U69A | 7.98e-05 ± 2.2e-05 |  | 3.9e-05 ± 9.8e-06 | 
C16G G60A | < 1e-05 | < 1e-05 |  | 
G32C A42U A53G U57A A64G | < 1e-05 |  | < 1e-05 | 
U31C U45C G60C G63U | < 1e-05 | < 1e-05 | < 1e-05 | 
C34U A36U | < 1e-05 | < 1e-05 | < 1e-05 | 
C16A U69G | 7.48e-05 ± 1.5e-05 |  |  | 
G35C A53G | < 1e-05 | < 1e-05 | < 1e-05 | < 1e-05
U30C A42C C67U | < 1e-05 | < 1e-05 | < 1e-05 | < 1e-05
